Measured values reported in ChEMBL document CHEMBL4304763 (Eur J Med Chem, 2019).
pIC50: −log10 of the molar value.

What was measured:
MCF7 [1] = settings: Homo sapiens
NCI-H1993 = assay: cells; settings: Homo sapiens
in vivo [2] = settings: Sprague-Dawley, rat, po, 6 mg/kg
[3] = biological target: Serine/threonine-protein kinase pim-2 (Homo sapiens, UniProt Q9P1W9)
[4] = biological target: Vascular endothelial growth factor receptor 2 (Homo sapiens, UniProt P35968)
in vivo [5] = settings: BALB/c, mouse, po, 10 mg/kg
[6] = biological target: Serine/threonine-protein kinase Chk1 (Homo sapiens, UniProt O14757)
MCF7 [7] = assay: cells; settings: Homo sapiens
in vitro [8] = settings: rat, microsomes
CYP2C9 = CYP2C9 (Homo sapiens, UniProt P11712); assay: in vitro; settings: microsomes
in vitro [9] = settings: rhesus monkey, microsomes
LNCaP = assay: cells; settings: Homo sapiens
in vivo [10] = settings: BALB/c, mouse, iv, 3 mg/kg
in vitro [11] = settings: rat, microsomes; remark: listed apart in the source
BXPC-3 = assay: cells; settings: Homo sapiens
PC-3 = assay: cells; settings: Homo sapiens
in vivo [12] = settings: BALB/c, mouse, po, 10 mg/kg; remark: listed apart in the source
in vitro [13] = settings: human, microsomes
[14] = biological target: Tyrosine-protein kinase JAK1 (Homo sapiens, UniProt P23458)
in vitro [15] = settings: dog, microsomes
MCF7 [16] = format: functional, Homo sapiens; settings: at 50 mg/kg
in vitro [17] = settings: mouse, microsomes
[18] = biological target: Platelet-derived growth factor receptor beta (Homo sapiens, UniProt P09619)
[19] = biological target: High affinity nerve growth factor receptor (Homo sapiens, UniProt P04629)
ZR-75-1 = assay: cells; settings: Homo sapiens
A549 [20] = assay: cells; settings: Homo sapiens
CYP3A4 = CYP3A4 (Homo sapiens, UniProt P08684); assay: in vitro; settings: microsomes
NCI-H358 = assay: cells; settings: Homo sapiens
in vivo [21] = settings: Sprague-Dawley, rat, po, 6 mg/kg; remark: listed apart in the source
in vivo [22] = settings: Sprague-Dawley, rat, iv, 3 mg/kg
[23] = biological target: Fibroblast growth factor receptor 1 (Homo sapiens, UniProt P11362)
[24] = biological target: RAF proto-oncogene serine/threonine-protein kinase (Homo sapiens, UniProt P04049)
MCF7 [25] = assay: animal or person; settings: Mus musculus, MCF7, po, 456 h, read-out: TGI
MCF7 [26] = assay: animal or person; settings: Mus musculus, MCF7, po, 456 h, read-out: TGI; remark: listed apart in the source
in vivo [27] = settings: BALB/c, mouse, iv, 3 mg/kg; remark: listed apart in the source
Aurora kinase A = Aurora kinase A (Homo sapiens, UniProt O14965)
CDK4/Cyclin D3 = CDK4/Cyclin D3 (Homo sapiens, UniProt P11802)
CYP2D6 = CYP2D6 (Homo sapiens, UniProt P10635); assay: in vitro; settings: microsomes
CDK7/Cyclin H/MNAT1 = CDK7/Cyclin H/MNAT1 (Homo sapiens, UniProt P50613)
T47D = assay: cells; settings: Homo sapiens
in vivo [28] = settings: BALB/c, mouse, iv, 3 mg/kg; remark: listed apart in the source
in vivo [29] = settings: BALB/c, mouse, iv, 3 mg/kg; remark: listed apart in the source
[30] = biological target: Mitogen-activated protein kinase 3 (Homo sapiens, UniProt P27361)
K562 = assay: cells; settings: Homo sapiens
[31] = biological target: Serine/threonine-protein kinase Chk2 (Homo sapiens, UniProt O96017)
in vivo [32] = settings: Sprague-Dawley, rat, iv, 3 mg/kg; remark: listed apart in the source
[33] = biological target: RAC-alpha serine/threonine-protein kinase (Homo sapiens, UniProt P31749)
PANC-1 = assay: cells; settings: Homo sapiens
NCI-N87 = assay: cells; settings: Homo sapiens
in vivo [34] = settings: Sprague-Dawley, rat, po, 6 mg/kg; remark: listed apart in the source
Aurora kinase B = Aurora kinase B (Homo sapiens, UniProt Q96GD4)
in vivo [35] = settings: BALB/c, mouse, po, 10 mg/kg; remark: listed apart in the source
[36] = biological target: Mitogen-activated protein kinase 10 (Homo sapiens, UniProt P53779)
[37] = biological target: Voltage-gated inwardly rectifying potassium channel KCNH2 (Homo sapiens, UniProt Q12809)
A549 [38] = assay: animal or person; settings: Mus musculus, A549, po, 480 h, read-out: TGI
[39] = biological target: MAP kinase-activated protein kinase 2 (Homo sapiens, UniProt P49137)
CDK6/cyclin D3 = CDK6/cyclin D3 (Homo sapiens, UniProt Q00534)
COLO 205 [40] = assay: animal or person; settings: Mus musculus, COLO 205, po, 312 h, read-out: TGI
in vitro [41] = settings: rhesus monkey, microsomes; remark: listed apart in the source
[42] = biological target: Platelet-derived growth factor receptor alpha (Homo sapiens, UniProt P16234)
in vivo [43] = settings: BALB/c, mouse, po, 10 mg/kg; remark: listed apart in the source
[44] = biological target: Proto-oncogene tyrosine-protein kinase Src (Homo sapiens, UniProt P12931)
HepG2 = assay: cells; settings: Homo sapiens
CYP2C19 = CYP2C19 (Homo sapiens, UniProt P33261); assay: in vitro; settings: microsomes
CFPAC-1 = assay: cells; settings: Homo sapiens
U-87 MG = assay: cells; settings: Homo sapiens
in vivo [45] = settings: Sprague-Dawley, rat, po, 6 mg/kg; remark: listed apart in the source
NCI-H1975 = assay: cells; settings: Homo sapiens
[46] = biological target: Serine/threonine-protein kinase B-raf (Homo sapiens, UniProt P15056)
[47] = biological target: Mitogen-activated protein kinase 9 (Homo sapiens, UniProt P45984)
[48] = biological target: 5'-AMP-activated protein kinase catalytic subunit alpha-1 (Homo sapiens, UniProt Q13131)
in vivo [49] = settings: Sprague-Dawley, rat, iv, 3 mg/kg; remark: listed apart in the source
NCI-H441 = assay: cells; settings: Homo sapiens
in vivo [50] = settings: Sprague-Dawley, rat, iv, 3 mg/kg; remark: listed apart in the source
in vitro [51] = settings: dog, microsomes; remark: listed apart in the source
CYP1A2 = CYP1A2 (Homo sapiens, UniProt P05177); assay: in vitro; settings: microsomes
[52] = biological target: Epidermal growth factor receptor (Homo sapiens, UniProt P00533)
SNU-5 = assay: cells; settings: Homo sapiens
[53] = biological target: Mitogen-activated protein kinase 8 (Homo sapiens, UniProt P45983)
[54] = biological target: Tyrosine-protein kinase JAK2 (Homo sapiens, UniProt O60674)
U-251 = assay: cells; settings: Homo sapiens
in vitro [55] = settings: human, microsomes; remark: listed apart in the source
MCF7 [56] = assay: animal or person; settings: Mus musculus, MCF7, po, 456 h, read-out: TGI; remark: listed apart in the source
in vitro [57] = settings: mouse, microsomes; remark: listed apart in the source
in vivo [58] = settings: Sprague-Dawley, rat, iv, 3 mg/kg; remark: listed apart in the source
in vivo [59] = settings: BALB/c, mouse, iv, 3 mg/kg; remark: listed apart in the source
COLO 205 [60] = assay: cells; settings: Homo sapiens

In the case of `Cc1nc2c(F)cc(-c3nc(Nc4ccc5c(n4)CCN(CCN(C)C)C5)ncc3F)cc2n1C(C)C`, the TGI (MCF7 [1]) was “Dose-dependent effect”, the pIC50 (NCI-H1993) was 6.12 and the AUC(0-t) at 24 h (in vivo [2]) was 1400 ng·h/mL. For the same compound, the pIC50 [3] was 6.75, the pIC50 [4] was 5.41 and the half-life at 24 h (in vivo [5]) was 4.81 h. It also gave a pIC50 [6] of 5.04, a pIC50 (MCF7 [7]) of 8.15 and a half-life at 1 h (in vitro [8]) of 2.32 h. For the same compound, the inhibition at […] (CYP2C9) was under 15%, the half-life at 1 h (in vitro [9]) was 0.252 h and the pIC50 (LNCaP) was 7.65. The Cmax at 24 h (in vivo [10]) was 2420 ng/mL, the microsomal CLint at 1 h (in vitro [11]) was 10 µL/min/mg and the pIC50 (BXPC-3) was 7.44. The pIC50 (PC-3) was 5.87, the AUC(0-t) at 24 h (in vivo [12]) was 6850 ng·h/mL and the half-life at 1 h (in vitro [13]) was 0.825 h. For the same compound, the pIC50 [14] was 6.10, the half-life at 1 h (in vitro [15]) was 0.303 h and the T/C (MCF7 [16]) was 10%. It also gave a half-life at 1 h (in vitro [17]) of 1.16 h, a pIC50 [18] of 6.41 and a pIC50 [19] of 6.96. The pIC50 (ZR-75-1) was 7.67, the pIC50 (A549 [20]) was 7.00 and the inhibition at […] (CYP3A4) was under 15%. It also gave a pIC50 (NCI-H358) of 7.70, a bioavailability at 24 h (in vivo [21]) of 49% and an AUC(0-t) at 24 h (in vivo [22]) of 1430 ng·h/mL. It also gave a pIC50 [23] of under 4.52, a pIC50 [24] of 4.55 and an inhibition in vivo at 25 mg/kg (MCF7 [25]) of 105%. For the same compound, the inhibition in vivo at 50 mg/kg (MCF7 [26]) was 117%, the Vd at 24 h (in vivo [27]) was 4.4 L/kg and the pIC50 (Aurora kinase A) was under 4.52. It also gave a pIC50 (CDK4/Cyclin D3) of 9.15, an inhibition at […] (CYP2D6) of under 15% and a pIC50 (CDK7/Cyclin H/MNAT1) of 5.91. It also gave a pIC50 (T47D) of 8.06, a half-life at 24 h (in vivo [28]) of 4.19 h and an AUC(0-t) at 24 h (in vivo [29]) of 2360 ng·h/mL. It also gave a pIC50 [30] of 4.87, a pIC50 (K562) of 6.52 and a pIC50 [31] of 6.01. The Cmax at 24 h (in vivo [32]) was 600 ng/mL, the pIC50 [33] was under 4.52 and the pIC50 (PANC-1) was 6.50. It also gave a pIC50 (NCI-N87) of 6.37, a Cmax at 24 h (in vivo [34]) of 128 ng/mL and a pIC50 (Aurora kinase B) of 5.07. For the same compound, the bioavailability at 24 h (in vivo [35]) was 87%, the pIC50 [36] was 6.38 and the pIC50 [37] was 5.00. It also gave an inhibition in vivo at 50 mg/kg (A549 [38]) of 94%, a pIC50 [39] of under 4.52 and a pIC50 (CDK6/cyclin D3) of 8.96. It also gave an inhibition in vivo at 25 mg/kg (COLO 205 [40]) of 111%, a microsomal CLint at 1 h (in vitro [41]) of 92 µL/min/mg and a pIC50 [42] of 6.01. For the same compound, the Cmax at 24 h (in vivo [43]) was 775 ng/mL, the pIC50 [44] was 5.98 and the pIC50 (HepG2) was 7.58. For the same compound, the inhibition at […] (CYP2C19) was under 15%, the pIC50 (CFPAC-1) was 6.62 and the pIC50 (U-87 MG) was 6.68. It also gave a half-life at 24 h (in vivo [45]) of 4.52 h, a pIC50 (NCI-H1975) of 6.49 and a pIC50 [46] of 5.08. For the same compound, the pIC50 [47] was 6.52, the pIC50 [48] was 6.06 and the clearance at 24 h (in vivo [49]) was 34.8 mL/min/kg. It also gave a pIC50 (NCI-H441) of 6.95, a Vd at 24 h (in vivo [50]) of 10.7 L/kg and a microsomal CLint at 1 h (in vitro [51]) of 76 µL/min/mg. It also gave an inhibition at […] (CYP1A2) of under 15%, a pIC50 [52] of 5.71 and a pIC50 (SNU-5) of 6.59. It also gave a pIC50 [53] of 5.38, a pIC50 [54] of 6.77 and a pIC50 (U-251) of 6.87. The microsomal CLint at 1 h (in vitro [55]) was 28 µL/min/mg, the inhibition in vivo at 10 mg/kg (MCF7 [56]) was 79% and the microsomal CLint at 1 h (in vitro [57]) was 20 µL/min/mg. The half-life at 24 h (in vivo [58]) was 3.95 h and the clearance at 24 h (in vivo [59]) was 21.3 mL/min/kg.
Compound `Cc1nc2c(F)cc(-c3nc(Nc4ccc5c(n4)CCN(CCN(C)C)C5)ncc3F)cc2n1CC1CC1` has a pIC50 (MCF7 [7]) of 7.67, a pIC50 (ZR-75-1) of 7.21 and a pIC50 (A549 [20]) of 7.12. The pIC50 (COLO 205 [60]) was 6.77 and the pIC50 (T47D) was 7.58.
With `CCC(CC)n1c(C)nc2c(F)cc(-c3nc(Nc4ccc5c(n4)CCN(CCN(C)C)C5)ncc3F)cc21` the pIC50 (ZR-75-1) was 7.87, the pIC50 (A549 [20]) was 6.75 and the pIC50 (COLO 205 [60]) was 7.17. The pIC50 (T47D) was 8.08.
